Reference: patent publication US9663561B2, “Methods of treatment of cancer using SRC-modulating peptides” (The University of Toledo, priority 2006, dated 2017)

Experiments:
[1] = target: T1, Src (Homo sapiens, UniProt P12931); assay: Src pY418 autophosphorylation / activity of purified recombinant Src; format: biochemical; details: FIG. 29B
T1 construct: purified recombinant full-length Src from Upstate Biotechnology was used; purchased Upstate Biotechnology (Lake Placid, N.Y.)
Method: The Src kinase activity was assayed using a commercial kit (Haas et al., 2000). To determine how Na+/K+-ATPase affects Src kinase activity, the purified Src (4.5 U) was incubated with 5 μg of the purified Na+/K+-ATPase in the Src assay buffer for 30 min at room temperature. Afterward, both control Src or the Na+/K+-ATPase-bound Src were exposed to 10 μM ouabain and Src kinase activity was determined. In other experiments, the Src pY418 was measured by anti-pY418 antibody to indicate Src activation (Ma et al., 2000). To do so, the purified Src (4.5 U) was incubated with different amounts of the purified Na+/K+-ATPase or GST-Na+/K+ATPase constructs in phosphate-buffered saline (PBS) for 30 min at 37° C. Afterward, 2 mM ATP/Mg2+ was added. The reaction continued for 5 min at 37° C. and was stopped by addition of SDS sample buffer.
The reaction was stopped by adding 5× loading buffer. pY418 was probed to measure Src activation.

[2] = system: human prostate cancer cell (DU145); assay: DU145 prostate cancer cell growth; format: cell-based; details: peptide added to DU145 cells
Method: 2.0 μg of pYFP-C1 or pYFP-C1-ND1 plasmid was transfected into DU145 cells with Lipofectamine 2000. After 48 hr, cell numbers were counted with Trypan Blue Staining

For “TAT-P3: TAT-tagged Src peptide inhibitor P3, cell membrane permeable (GRKKRRQRRRPPQSATWLALSRIAGLCNRAVFQ)”, the “Src inhibition in vitro” value [1] was “inhibit Src in vitro” and the DU145 cell growth [2] was “inhibited cell growth”.
